Results reported in PubChem BioAssay AID463173 (ICCB-Longwood Screening Facility, Harvard Medical School, 2010).
About 4,300 (8.3%) of roughly 52,000 compounds were called active. No stated cut-off is given here; in the data, active means survival mostly below about 52% (no sharp cut-off); inactive means mostly above about 56%. This is one part of the list.

System: DeltatarO mutant
Test: S. aureus survival, RN4220 and DeltatarO strains – OD600, teichoic acid synthesis inhibitors, primary screen (AID 463173)
Details: S. aureus RN4220 wild type/DeltatarO growth, OD600, 18 h, hits give low values, screened at 18.75 µg/mL (by protocol)

SMILES	survival
CCC(=O)N1CCc2cc(Br)cc(S(=O)(=O)CCC(=O)Nc3ccc(C)c(F)c3)c21	inactive: 86%
O=C(COc1ccccc1)NCC1CCCO1 (centres undefined)	inactive: 101%
COc1ccc2c(c1)CC(C(=O)NCCCN1CCN(c3ccccc3F)CC1)CO2 (centres undefined)	inactive: 87%
COc1ccc2c(c1)-c1nc(/N=C/c3ccc(C)o3)sc1CC2	inactive: 73%
Cc1[nH]c2ccc(-c3nnc(SCc4ccc(F)cc4)o3)cc2c1C	inactive: 94%
CCn1c(C)c(C)c2cc(C(=O)NCc3ccc(OC)cc3OC)ccc21	inactive: 70%
CCN(CC)S(=O)(=O)c1ccc(NC(=O)c2c(C)oc3ncnc(N4CCOCC4)c23)cc1	inactive: 100%
CCOC(=O)/C(C#N)=C/c1ccc(N2CCCCC2)o1	inactive: 73%
COc1ccc(-c2ccc(CCC(=O)O)n2CC(=O)Nc2cccc(Cl)c2C)cc1	inactive: 46%
COc1ccc(CNC(=O)CCc2c(C)nc3nc(CNC(=O)OC(C)(C)C)nn3c2C)cc1	inactive: 85%
CC(=O)c1cccc(Nc2nn(-c3ccc(OC(F)(F)F)cc3)nc2C(C)=O)c1	inactive: 91%
O=C(CN1C(=O)CC(c2ccco2)Sc2ccccc21)Nc1ccc(Br)cc1 (centres undefined)	inactive: 75%
CCCNC(=O)C1CCN(Cc2cc3ccccc3n2Cc2ccccc2)CC1	inactive: 87%
COc1cc(C)ccc1OCCSc1nc2ccc(NC(=O)c3ccc(C)cc3)cc2s1	inactive: 71%
O=C1CN(C(=O)Nc2ccccc2Cl)C(c2ccccc2)c2c(sc3c2CCCC3)N1 (centres undefined)	inactive: 73%
Cc1nn(-c2ccccc2)c2c1N(CCCC(=O)NCc1ccccc1)C(=O)CS2	inactive: 99%
COc1ccc(NC(=O)C(C)Sc2cc(-c3ccccc3)nc(C)n2)cc1Cl (centres undefined)	inactive: 55%
CCNC(=S)N1CCC(C(N)=O)CC1	inactive: 99%
COc1ccc(S(=O)(=O)N(C)C2CCCCC2)cc1	inactive: 85%
CC[n+]1c(C)sc2sc3ccccc3c21	inactive: 68%
COc1ccc(-c2cc(C(=O)NCCc3ccc(OC)c(OC)c3)c3ccccc3n2)cc1	active: 48%
COc1ccc(-n2ccn(Cc3ccccc3C)c(=O)c2=O)cc1	inactive: 106%

SMILES	survival
Cc1ccc(OCC(=O)Nc2ccc3[nH]c(=O)sc3c2)cc1	inactive: 93%
CCc1cc2c(cc3c(=O)n(CC(=O)NC4CCCCC4)ncn32)s1	inactive: 88%
COc1cccc(C(c2sc3nc(-c4ccco4)nn3c2O)N2CCN(c3ccccc3F)CC2)c1 (centres undefined)	inactive: 74%
CCOc1ccc(N(C(C)C(=O)NCCSc2ccc(C)cc2)S(C)(=O)=O)cc1 (centres undefined)	inactive: 45%
CCCCn1cc(S(=O)(=O)c2ccc(CC)cc2)c(=O)c2cc(F)c(N3CCOCC3)cc21	inactive: 83%
Cc1cc(C)cc(NC(=O)C(=O)NCC(c2cccnc2)N2CCN(c3ccccc3)CC2)c1 (centres undefined)	inactive: 56%
COC(=O)c1ccc(Cn2nc(-c3ccc(C)cc3)ccc2=O)cc1	inactive: 133%
Nc1ccccc1N1CCN(C(=O)c2ccccc2)CC1	inactive: 103%
Oc1ccc(-c2cccc(-c3ccc(O)cc3)c2)cc1	active: 27%
O=C(COc1ccc(F)cc1)Nc1ccccc1OCc1cc(=O)n2ccccc2n1	inactive: 89%
COc1ccc(-c2noc(-c3ccc(NC4CCCCC4)c([N+](=O)[O-])c3)n2)cc1	inactive: 45%
CCc1nn2c(=O)cc(COC(=O)c3ccc(NC(=O)C4CCCCC4)cc3)nc2s1	inactive: 81%
CCC1CCc2nc3sc(C(=O)Nc4cccc(C(F)(F)F)c4)c(N)c3cc2C1 (centres undefined)	inactive: 133%
CCCc1cc(=O)oc2cc(C)c3c(C(C)(C)C)coc3c12	inactive: 88%
COc1cccc(NC(=O)c2ccc3[nH]c(C)cc(=O)c3c2)c1	inactive: 102%
COc1ccc(S(=O)(=O)Nc2cc3c(cc2N2CCOCC2)n(C)c(=O)n3C)cc1	inactive: 126%
Cc1ccccc1-c1nc(SCC(=O)NCC2CCCO2)c2c(=O)n(C)c(=O)n(C)c2n1 (centres undefined)	inactive: 78%
COc1ccc(Cc2nc3ccc(C(=O)NCCCN4CCN(C)CC4)cc3o2)cc1	inactive: 124%
COCCNC(=O)c1ccc2c(=O)n(CCOC)c(SCC(=O)c3c[nH]c4ccccc34)nc2c1	active: 17%
COc1ccc(N2CCN(C(=O)c3sc4nc5n(c(=O)c4c3C)CCC5)CC2)cc1	inactive: 103%
Cc1cccc(CCNC(=O)CCc2c(C)nc3ncnn3c2C)c1	inactive: 93%
CCc1cccc(NC(=O)c2oc3ccc4c(c3c2C)C(=O)CC(C)(C)O4)c1	inactive: 85%
